Hit rate of the full screen: of about 110,000 compounds, about 230 (0.21%) showed an effect of 50% or more. This is one part of the list.
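Note: 30 min substrate incubation versus DMSO and 10 µM JCP410 controls.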

Sequence of DPAP1 (Q8IIJ9 whole entry, looked up): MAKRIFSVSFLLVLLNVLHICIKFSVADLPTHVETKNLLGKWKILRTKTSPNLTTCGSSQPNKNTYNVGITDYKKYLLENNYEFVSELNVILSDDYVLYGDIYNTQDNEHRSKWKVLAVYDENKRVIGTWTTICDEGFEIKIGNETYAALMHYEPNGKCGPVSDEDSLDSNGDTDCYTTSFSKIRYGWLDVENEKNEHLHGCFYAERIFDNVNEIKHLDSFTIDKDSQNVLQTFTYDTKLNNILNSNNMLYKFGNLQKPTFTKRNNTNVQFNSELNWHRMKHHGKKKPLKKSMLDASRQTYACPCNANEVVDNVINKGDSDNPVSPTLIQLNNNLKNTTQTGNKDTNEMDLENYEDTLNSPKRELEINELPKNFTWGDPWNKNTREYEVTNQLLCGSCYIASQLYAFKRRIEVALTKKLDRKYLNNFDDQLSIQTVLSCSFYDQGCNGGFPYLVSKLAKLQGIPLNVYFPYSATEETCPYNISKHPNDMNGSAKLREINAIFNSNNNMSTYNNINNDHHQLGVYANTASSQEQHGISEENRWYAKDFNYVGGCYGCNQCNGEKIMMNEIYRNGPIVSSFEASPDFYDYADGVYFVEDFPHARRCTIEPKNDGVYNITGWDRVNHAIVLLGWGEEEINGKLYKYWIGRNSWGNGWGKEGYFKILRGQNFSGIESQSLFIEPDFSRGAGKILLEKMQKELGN

This assay has as its target DPAP1 (Plasmodium falciparum, UniProt Q8IIJ9). Description: primary screen, percent inhibition; read by cleavage of a fluorogenic dipeptide substrate; higher = more effect of the substance. On the set-up: species or system P. falciparum D10 trophozoite lysates; single well.
Turning to `CS(=O)(=O)N(CC(=O)NC1CC2CCC1C2)c1cccc(F)c1` (stereo not shown), the “% Inhibition @ 10 uM” value is reported as -8.42%. `COCCCNC(=O)c1cc2c(=O)n3ccccc3nc2n1C`: the “% Inhibition @ 10 uM” value is -1.44%.

As to `O=Cc1cc(Cl)c2c(c1)OCO2`, the “% Inhibition @ 10 uM” value turned out to be 23.6%. On to `Cn1nc(C(=O)Nc2cccnc2)c2ccccc2c1=O`, for which the “% Inhibition @ 10 uM” value came out at 0.628%.

On to `COc1ccc(Cl)cc1NC(=O)C1C2C=CC(O2)C1C(=O)O` (stereo not shown), for which the “% Inhibition @ 10 uM” value is -5.46%. As for `COc1ccccc1CNC(=O)c1nccnc1CO`, the “% Inhibition @ 10 uM” value is on record as -2.88%. `N#Cc1ccccc1NC(=O)C(c1ccccc1)c1ccccc1`: the “% Inhibition @ 10 uM” value is -3.13%.

As to `Cc1ccccc1C(=O)Nc1sc2c(c1C(=O)NCc1ccco1)CCC2`, the “% Inhibition @ 10 uM” value is 1.02%. Then `COCCC(=O)NC12CC3CC(CC(C3)C1)C2`, with 0.526%; and `O=C(COc1ccccc1Cl)Nc1cccc(-c2nc3ncccc3o2)c1`, with 10.8%. For `CC(NC(=O)C(=O)NCc1ccc2c(c1)OCO2)C(c1cccs1)N1CCOCC1` (stereo not shown) the value was -1.08%; for `Oc1ccccc1C1N=C(c2ccccc2)NC(c2ccccc2)=N1`, -4.06%; for `COc1ccc(C[C@@H]2NCC[C@]3(O)CCCC[C@H]23)cc1`, -1.91%. For `Cc1nnc(SCC(=O)N2CCC3(CC2)OCCO3)c2nn(-c3ccccc3)c(C)c12` the value was 0.535%; for `O=C(COc1ccccc1Cl)NCc1nc(-c2ccccc2)no1`, 3.74%; for `O=C(NCCN1C(=O)C2C3C=CC(C3)C2C1=O)N1CCOCC1` (stereo not shown), 0.565%.

For the molecule `CCOc1ccc(/C=C/C(=O)c2ccc(OC)cc2)cc1`, the “% Inhibition @ 10 uM” value is recorded as 1.49%. As to `CC(C)Oc1ccc(CNC(=O)C2CCCN(c3nnc(-n4cccc4)s3)C2)cc1` (stereo not shown), the “% Inhibition @ 10 uM” value is -3.34%. With `CCOC(=O)c1c(C)c(C(=O)O)n(C)c1C`, the “% Inhibition @ 10 uM” value was 4.63%. Regarding `Cc1ccc(-c2nc(CSCC(=O)NCCN3CCOCC3)c(C)o2)cc1`, the “% Inhibition @ 10 uM” value is 0.689%. Regarding `Cn1c(=O)[nH]c(=O)c2c1nc(N1CCN(C(=O)c3ccco3)CC1)n2CCSc1ncccn1`, the “% Inhibition @ 10 uM” value is listed as 4%. Consider `Cc1ccc(N2CCN(S(=O)(=O)N3CCCCC3)CC2)cc1C`, for which the “% Inhibition @ 10 uM” value came out at 0.145%. As to `Fc1ccc(/C=C/C2=NN(c3ccc(F)cc3)C(c3ccc(F)cc3)C2)cc1` (stereo not shown), the “% Inhibition @ 10 uM” value is listed as -5.11%. Then `CCOc1ccc2nc3c(cc2c1)c(C)nn3-c1ccccc1`, with 5.21%; and `CCOc1ccccc1NC(=O)C1=C(C)NC(=O)NC1c1ccc(OC)cc1OC` (stereo not shown), with -0.865%; and `Cc1cc(O)n2nc(-c3ccc(-c4ccccc4)cc3)cc2n1`, with -1.85%. Turning to `CC1(C)CC(=O)c2c(-c3ccc([N+](=O)[O-])cc3)coc2C1`, the “% Inhibition @ 10 uM” value stood at 4.14%. Then `COc1ccc(OC)c(CNCc2c(C(=O)O)c(C)n(Cc3ccc(F)cc3)c2C)c1`, with -0.23%.

These data come from article PMC6919601, “Identification of Plasmodium dipeptidyl aminopeptidase allosteric inhibitors by high throughput screening” (PLoS ONE, 2019).
